Results on 10 variants are retold here after the supplement of paper PMC12217912.

Sequences and labels used below:
B1: TEV protease; numbered along this chain (parent)
chain: MGESLFKGPRDYNPISSSICHLTNESDGHTTSLYGIGFGPFIITNKHLFRRNNGTLVVQSLHGVFKVKDTTTLQQHLVDGRDMIIIRMPKDFPPFPQKLKFREPQREERICLVTTNFQTKSMSSMVSDTSCTFPSGDGIFWKHWIQTKDGQCGSPLVSTRDGFIVGIHSASNFTNTNNYFTSVPKNFMELLTNQEAQQWVSGWRLNADSVLWGGHKVFMVKPEEPFQPVKEATQL

In this experiment the parent is B1. Kind of experiment: raw area under fraction-flipped curve 0-4 h after induction (AUC4h, not background-subtracted), DNA-recorder readout of cleavage of the substrate (dimensionless); higher = more cleavage of the substrate by the protease variant. As to conditions: temperature: 34 °C; time window: 0-4 h after rhamnose induction. As for the experimental part: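 In vivo DNA recorder in E. coli TOP10(DE3) ΔrhaA at 34 °C. Each TEVp single-site mutant (parent TEVp 0) is paired with a single-site variant of the 7-mer TEVs (canonical ENLYFQ|S). The substrate sits between flexible linkers in a Bxb1-sfGFP-TEVs-SsrA fusion, so cleavage stabilises Bxb1 and speeds flipping of a recombination array, read by NGS. The value is the raw area under the fraction-flipped curve over 0-4 h after rhamnose induction (AUC4h), with ≥20 reads per time point. It is not background-subtracted; inactive controls average about 0.047.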

Some of the results follow. The full chains were built here from the parent and the listed change. Inactive controls read about 0.05.
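Note: Bxb1 expression induced with 0.2% (w/v) L-rhamnose at OD600 near 0.5, cultures sampled hourly, flipped fraction per protease–substrate barcode pair counted by paired-end Illumina sequencing.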

With MGESLFKGPRDYNPISSSICHLTNESDGHTTSLYGIGFGPFIITNKHLFRRNNGTLVVQSLHGVFKVKDTTTLQQHLVDGRDMIIIRMPKDFPPFPQKLKFREPQREERICLVTTNFQTKSMSSMVSDTSCTFPSGDGIFWKHWIQTKDGQCGSPLVHTRDGFIVGIHSASNFTNTNNYFTSVPKNFMELLTNQEAQQWVSGWRLNADSVLWGGHKVFMVKPEEPFQPVKEATQL [S158H], the “area with substrate ENLYFAS” value came to 0.0747, the “area with substrate ENLYFCS” value came to 0.0513, the “area with substrate ENLYFDS” value amounted to 0.0484 and the “area with substrate ENLYFES” value was determined as 0.0546. Besides, the “area with substrate ENLYFFS” value worked out at 0.0533, the “area with substrate ENLYFGS” value is 0.0518, the “area with substrate ENLYFIS” value is 0.0518 and the “area with substrate ENLYFKS” value stood at 0.0422. For the same variant, the “area with substrate ENLYFLS” value came to 0.0234, the “area with substrate ENLYFMS” value turned out to be 0.0509, the “area with substrate ENLYFPS” value was determined as 0.0457 and the “area with substrate ENLYFRS” value came to 0.0552. For the same variant, the “area with substrate ENLYFSS” value was determined as 0.0503, the “area with substrate ENLYFTS” value is 0.0528 and the “area with substrate ENLYFWS” value is 0.0538.
For the variant MGESLFKGPRDYNPISSSICHLTNESDGHTTSLYGIGFGPFIITNKHLFRRNNGTLVVQSLHGVFKVKDTTTLQQHLVDGRDMIIIRMPKDFPPFPQKLKFREPQREERICLVTTNFQTKSMSSMVSDTSCTFPSGDGIFWKHWIQTKDGQCGSPLVSTRDGFIVGIHNASNFTNTNNYFTSVPKNFMELLTNQEAQQWVSGWRLNADSVLWGGHKVFMVKPEEPFQPVKEATQL [S169N], the “area with substrate ENLYFAS” value amounted to 0.0567, the “area with substrate ENLYFCS” value was 0.0544, the “area with substrate ENLYFDS” value amounted to 0.0552 and the “area with substrate ENLYFES” value stood at 0.0665. Besides, the “area with substrate ENLYFFS” value was 0.0643, the “area with substrate ENLYFHS” value was 0.0731, the “area with substrate ENLYFIS” value came to 0.0516 and the “area with substrate ENLYFMS” value worked out at 0.0545. In addition, the “area with substrate ENLYFPS” value is 0.0523, the “area with substrate ENLYFRS” value turned out to be 0.0614, the “area with substrate ENLYFTS” value is 0.0464 and the “area with substrate ENLYFVS” value stood at 0.0636. Moreover, the “area with substrate ENLYFWS” value came to 0.0531.
In the case of MGESLFKGPRDYNPISSSICHLTNESDGHTTSLYGIGFGPFIITNKHLFRRNNGTLVVQSLHGVFKVKDTTTLQQHLVDGRDMIIIRMPKDFPPFPQKLKFREPQREERICLVTTNFQTKSMSSMVSDTSCTFPSGDGIFWKHWIQTKDGQCGSPLVSTRDGFIVGIHCASNFTNTNNYFTSVPKNFMELLTNQEAQQWVSGWRLNADSVLWGGHKVFMVKPEEPFQPVKEATQL [S169C], the “area with substrate ENLYFAS” value came out at 0.0566, the “area with substrate ENLYFCS” value was found to be 0.0468, the “area with substrate ENLYFDS” value was 0.0737 and the “area with substrate ENLYFES” value came to 0.0578. For the same variant, the “area with substrate ENLYFFS” value is 0.0566, the “area with substrate ENLYFIS” value turned out to be 0.0577, the “area with substrate ENLYFKS” value was 0.0655 and the “area with substrate ENLYFMS” value came to 0.0571. The “area with substrate ENLYFNS” value worked out at 0.0466, the “area with substrate ENLYFPS” value was found to be 0.0581, the “area with substrate ENLYFTS” value was determined as 0.0571 and the “area with substrate ENLYFVS” value stood at 0.0771. The “area with substrate ENLYFWS” value was 0.0612 and the “area with substrate ENLYFYS” value was determined as 0.0605.
Consider MGESLFKGPRDYNPISSSICHLTNESDGHTTSLYGIGFGPFIITNKHLFRRNNGTLVVQSLHGVFKVKDTTTLQQHLVDGRDMIIIRMPKDFPPFPQKLKFREPQREERICLVTTNFQTKSMSSMVSDTSCTFPSGDGIFWKHWIQTKDGQCGSPLVSTRDGFIVGIHSASNFTNLNNYFTSVPKNFMELLTNQEAQQWVSGWRLNADSVLWGGHKVFMVKPEEPFQPVKEATQL [T176L], for which the “area with substrate ENLYFAS” value was found to be 0.0747, the “area with substrate ENLYFCS” value was 0.0619, the “area with substrate ENLYFFS” value worked out at 0.0663 and the “area with substrate ENLYFHS” value came out at 0.0592. The “area with substrate ENLYFIS” value worked out at 0.0357, the “area with substrate ENLYFLS” value was 0.0673, the “area with substrate ENLYFMS” value was 0.0525 and the “area with substrate ENLYFNS” value worked out at 0.0594. Further, the “area with substrate ENLYFPS” value was 0.0534, the “area with substrate ENLYFRS” value amounted to 0.0491, the “area with substrate ENLYFSS” value was 0.057 and the “area with substrate ENLYFTS” value was 0.0582. Moreover, the “area with substrate ENLYFVS” value came out at 0.0552, the “area with substrate ENLYFWS” value is 0.0732 and the “area with substrate ENLYFYS” value was 0.061.
Take MGESLFKGPRDYNPISSSICHLTNESDGHTTSLYGIGFGPFIITNKHLFRRNNGTLVVQSLHGVFKVKDTTTLQQHLVDGRDMIIIRMPKDFPPFPQKLKFREPQREERICLVTTNFQTKSMSSMVSDTSCTFPSGDGIFWKHWIQTKDGQCGSPLVSTRDGFIVTIHSASNFTNTNNYFTSVPKNFMELLTNQEAQQWVSGWRLNADSVLWGGHKVFMVKPEEPFQPVKEATQL [G166T]: the “area with substrate ENLYFAS” value worked out at 0.0234, the “area with substrate ENLYFCS” value was 0.0649, the “area with substrate ENLYFES” value worked out at 0.0496 and the “area with substrate ENLYFFS” value was found to be 0.0485. In addition, the “area with substrate ENLYFHS” value is 0.0503, the “area with substrate ENLYFKS” value was 0.0447, the “area with substrate ENLYFPS” value was determined as 0.0691 and the “area with substrate ENLYFTS” value stood at 0.0466.
On to MGESLFKGPRDYNPISSSICHLTNESDGHTTSLYGIGFGPFIITNKHLFRRNNGTLVVQSLHGVFKVKDTTTLQQHLVDGRDMIIIRMPKDFPPFPQKLKFREPQREERICLVTTNFQTKSMSSMVSDTSCTFPSGDGIFWKHWIQTKDGQCGSPLVSTRDGFIVSIHSASNFTNTNNYFTSVPKNFMELLTNQEAQQWVSGWRLNADSVLWGGHKVFMVKPEEPFQPVKEATQL [G166S], for which the “area with substrate ENLYFAS” value is 0.0499, the “area with substrate ENLYFCS” value turned out to be 0.0338, the “area with substrate ENLYFES” value is 0.0316 and the “area with substrate ENLYFFS” value turned out to be 0.0582. The “area with substrate ENLYFGS” value was 0.0385, the “area with substrate ENLYFIS” value worked out at 0.0558, the “area with substrate ENLYFLS” value was 0.0343 and the “area with substrate ENLYFMS” value stood at 0.049. The “area with substrate ENLYFNS” value was determined as 0.0442, the “area with substrate ENLYFPS” value was found to be 0.0441, the “area with substrate ENLYFRS” value amounted to 0.03 and the “area with substrate ENLYFTS” value is 0.0323. The “area with substrate ENLYFWS” value worked out at 0.0627 and the “area with substrate ENLYFYS” value is 0.0484.
As for MGESLFKGPRDYNPISSSICHLTNESDGHTTSLYGIGFGPFIITNKHLFRRNNGTLVVQSLHGVFKVKDTTTLQQHLVDGRDMIIIRMPKDFPPFPQKLKFREPQREERICLVTTNFQTKSMSSMVSDTSCTFPSGDGIFWKHWIQTKDGQCGSPLVSTRDGFIVGIHSAGNFTNTNNYFTSVPKNFMELLTNQEAQQWVSGWRLNADSVLWGGHKVFMVKPEEPFQPVKEATQL [S171G], the “area with substrate ENLYFAS” value was determined as 0.0625, the “area with substrate ENLYFDS” value worked out at 0.047, the “area with substrate ENLYFES” value was determined as 0.0649 and the “area with substrate ENLYFFS” value stood at 0.0402. In addition, the “area with substrate ENLYFGS” value was found to be 0.0316, the “area with substrate ENLYFHS” value was 0.0427, the “area with substrate ENLYFIS” value turned out to be 0.0571 and the “area with substrate ENLYFPS” value came out at 0.0603. For the same variant, the “area with substrate ENLYFRS” value turned out to be 0.0425 and the “area with substrate ENLYFTS” value turned out to be 0.057.
For the variant MGESLFKGPRDYNPISSSICHLTNESDGHTTSLYGIGFGPFIITNKHLFRRNNGTLVVQSLHGVFKVKDTTTLQQHLVDGRDMIIIRMPKDFPPFPQKLKFREPQREERICLVTTNFQTKSMSSMVSDTSCTFPSGDGIFWKHWIQTKDGQCGSPLVSERDGFIVGIHSASNFTNTNNYFTSVPKNFMELLTNQEAQQWVSGWRLNADSVLWGGHKVFMVKPEEPFQPVKEATQL [T159E], the “area with substrate ENLYFAS” value was 0.0621, the “area with substrate ENLYFCS” value stood at 0.0657, the “area with substrate ENLYFDS” value was 0.0469 and the “area with substrate ENLYFES” value was determined as 0.0652. Moreover, the “area with substrate ENLYFFS” value came out at 0.0622, the “area with substrate ENLYFHS” value was determined as 0.0412, the “area with substrate ENLYFIS” value was determined as 0.0499 and the “area with substrate ENLYFKS” value came out at 0.0502. Further, the “area with substrate ENLYFPS” value stood at 0.0596, the “area with substrate ENLYFSS” value turned out to be 0.0602 and the “area with substrate ENLYFWS” value was found to be 0.0456.
For the variant MGESLFKGPRDYNPISSSICHLTNESDGHTTSLYGIGFGPFIITNKHLFRRNNGTLVVQSLHGVFKVKDTTTLQQHLVDGRDMIIIRMPKDFPPFPQKLKFREPQREERICLVTTNFQTKSMSSMVSDTSCTFPSGDGIFWKHWIQTKDGQCGSPKVSTRDGFIVGIHSASNFTNTNNYFTSVPKNFMELLTNQEAQQWVSGWRLNADSVLWGGHKVFMVKPEEPFQPVKEATQL [L156K], the “area with substrate ENLYFAS” value was found to be 0.0644, the “area with substrate ENLYFCS” value was found to be 0.0643, the “area with substrate ENLYFDS” value stood at 0.0731 and the “area with substrate ENLYFES” value amounted to 0.0546. The “area with substrate ENLYFFS” value was 0.0617, the “area with substrate ENLYFGS” value was 0.0482, the “area with substrate ENLYFHS” value was 0.0538 and the “area with substrate ENLYFIS” value turned out to be 0.0491. In addition, the “area with substrate ENLYFKS” value was determined as 0.0525, the “area with substrate ENLYFLS” value stood at 0.0622, the “area with substrate ENLYFNS” value came out at 0.0595 and the “area with substrate ENLYFPS” value turned out to be 0.0553. Besides, the “area with substrate ENLYFRS” value is 0.0514, the “area with substrate ENLYFSS” value was 0.0502, the “area with substrate ENLYFTS” value came out at 0.0516 and the “area with substrate ENLYFWS” value was found to be 0.0538.
Take MGESLFKGPRDYNPISSSICHLTNESDGHTTSLYGIGFGPFIITNKHLFRRNNGTLVVQSLHGVFKVKDTTTLQQHLVDGRDMIIIRMPKDFPPFPQKLKFREPQREERICLVTTNFQTKSMSSMVSDTSCTFPSGDGIFWKHWIQTKDGQCGSPLVSTRDGFIVGIHSASNFTNTNNYITSVPKNFMELLTNQEAQQWVSGWRLNADSVLWGGHKVFMVKPEEPFQPVKEATQL [F180I]: the “area with substrate ENLYFAS” value was 0.0031, the “area with substrate ENLYFCS” value worked out at 0.0397, the “area with substrate ENLYFES” value stood at 0.0541 and the “area with substrate ENLYFFS” value came to 0.0567. For the same variant, the “area with substrate ENLYFGS” value was determined as 0.052, the “area with substrate ENLYFIS” value was determined as 0.0511, the “area with substrate ENLYFKS” value came to 0.0556 and the “area with substrate ENLYFPS” value is 0.0472. In addition, the “area with substrate ENLYFSS” value stood at 0.048, the “area with substrate ENLYFTS” value came to 0.0509, the “area with substrate ENLYFVS” value was determined as 0.0546 and the “area with substrate ENLYFYS” value stood at 0.0442.
